{"source": "paper PMC5862788", "about": "(Antiviral therapy, 2018)", "key": {"clinical": {"experiment": "clinical", "conditions": "human, in vivo; for half-life: half-life t1/2 = ln(2)/ke"}, "[1]": {"conditions": "population estimate (R.S.E. %), HCV-infected individuals"}, "HCV genotype 1b": {"test_system": "HCV genotype 1b", "experiment": "animal or person", "conditions": "Hepatitis C virus, GETYPE1B, in Homo sapiens"}}, "note": "“And” between values parts separate entries of the source, which are not always exact repeats. Equal values may be shown once.", "data": [{"smiles": "CS(=O)(=O)Nc1ccc2c(c1)S(=O)(=O)N=C(C1=C(O)[C@@H]3[C@H]4CC[C@H](C4)[C@@H]3N(Cc3ccc(F)cc3)C1=O)N2", "note": "[setrobuvir]", "values": [{"measurement": "Vd", "setting": "clinical", "result": 5.11, "unit": "L"}, {"measurement": "k el", "setting": "clinical", "result": "1.75e-05", "unit": "s⁻¹"}, {"measurement": "half-life", "setting": "clinical; HCV-infected patients", "result": 11.4, "unit": "h"}, {"measurement": "half-life", "setting": "clinical; healthy volunteers", "result": 10.2, "unit": "h"}, {"measurement": "k12 (transition rate central to peripheral compartment)", "setting": "[1]", "result": "0.12 /hr and 0.12 (28) /hr"}, {"measurement": "k21 (transition rate peripheral to central compartment)", "setting": "[1]", "result": "0.071 /hr and 0.07 (11) /hr"}, {"measurement": "ka (first-order absorption rate)", "setting": "[1]", "result": "0.26 hr^−1 and 0.26 (19) hr^−1"}, {"measurement": "Tlag (lag-time)", "setting": "[1]; oral", "result": "1.68 hr and 1.68 (8) hr"}, {"measurement": "EC50", "setting": "HCV genotype 1b", "result": 8.45, "unit": "ng/mL"}]}]}
